From the supplement of paper PMC7826260
This is one part of the list. Viral Rep nickase domains cut single-stranded DNA in vitro (1 h at 37 °C, 3 µM enzyme); the outer parts of the 90-letter strands are left off. Uncut reads are compared with the no-enzyme pool on a log2 scale; strong cutting gives strongly negative numbers. There is no active / inactive call. Reads are scaled to the total; where an enzyme cuts many sequences, the uncut ones exceed 0.

Columns and labels:
Assay in all cases: uncleaved DNA left, log2 of reads against the no-enzyme library (log2 ratio); higher = less cleavage (more negative = more Rep cleavage of the k-mer); sequences stand for … in CTCGTCCG…ACCGGAGA
[1] = system: T1, Rep nickase domain of Muscovy duck circovirus
T1 sequence (residues 1-111 of Rep, tag left off): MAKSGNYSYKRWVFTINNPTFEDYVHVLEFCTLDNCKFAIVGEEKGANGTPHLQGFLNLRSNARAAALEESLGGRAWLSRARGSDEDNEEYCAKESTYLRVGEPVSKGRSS
Protocol: (§1)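 A pool of 90-nt single-stranded DNAs with seven random bases just before the constant AC of the nick site (name = the seven bases) was cut by 3 µM recombinant His6-SUMO-tagged Rep nickase domain (300 nM DNA, 50 mM HEPES pH 8.0, 50 mM NaCl, 1 mM MnCl2, 1 h, 37 °C, three replicates). Uncut DNA was amplified and sequenced.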

[2] = system: T2, Rep nickase domain of banana bunchy top virus
T2 sequence (residues 1-94 of Rep, tag left off): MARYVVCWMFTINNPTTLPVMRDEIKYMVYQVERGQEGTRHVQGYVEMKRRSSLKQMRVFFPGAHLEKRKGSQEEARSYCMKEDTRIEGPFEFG
Protocol: as §1

[3] = system: T3, Rep nickase domain of cabbage leaf curl virus
T3 sequence (residues 1-116 of Rep, tag left off): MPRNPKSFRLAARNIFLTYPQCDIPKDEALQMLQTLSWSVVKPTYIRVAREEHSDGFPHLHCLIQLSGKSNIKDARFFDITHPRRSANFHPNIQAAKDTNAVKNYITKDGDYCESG
Protocol: as §1

[4] = system: T4, Rep nickase domain of chickpea chlorotic dwarf virus
T4 sequence (residues 1-124 of Rep, tag left off): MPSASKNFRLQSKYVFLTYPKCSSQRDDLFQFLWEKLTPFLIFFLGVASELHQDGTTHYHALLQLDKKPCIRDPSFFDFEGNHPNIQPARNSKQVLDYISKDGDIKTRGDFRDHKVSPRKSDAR
Protocol: as §1

[5] = system: T5, Rep nickase domain of faba bean necrotic yellows virus
T5 sequence (residues 1-98 of Rep, tag left off): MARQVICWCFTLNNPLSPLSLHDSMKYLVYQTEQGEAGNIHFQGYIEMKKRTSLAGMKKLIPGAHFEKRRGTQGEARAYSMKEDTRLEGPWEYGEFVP
Protocol: as §1

[6] = system: T6, Rep nickase domain of maize striate mosaic virus
T6 sequence (residues 1-117 of Rep, tag left off): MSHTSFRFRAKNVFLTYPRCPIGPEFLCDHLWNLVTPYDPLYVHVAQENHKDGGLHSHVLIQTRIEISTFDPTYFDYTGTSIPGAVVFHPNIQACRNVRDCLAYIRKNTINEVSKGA
Protocol: as §1

[7] = system: T7, Rep nickase domain of porcine circovirus 2
T7 sequence (residues 2-116 of Rep, tag left off): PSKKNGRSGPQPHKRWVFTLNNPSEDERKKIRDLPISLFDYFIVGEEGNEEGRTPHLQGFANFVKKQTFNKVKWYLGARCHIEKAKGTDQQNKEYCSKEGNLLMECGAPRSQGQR
Protocol: as §1

[8] = system: T8, Rep nickase domain of tomato golden mosaic virus
T8 sequence (residues 1-124 of Rep, tag left off): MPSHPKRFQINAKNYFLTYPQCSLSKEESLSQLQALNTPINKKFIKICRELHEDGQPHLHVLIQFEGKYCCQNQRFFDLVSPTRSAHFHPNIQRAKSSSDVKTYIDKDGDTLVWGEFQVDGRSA
Protocol: as §1

[9] = system: T9, Rep nickase domain of tomato yellow leaf curl virus
T9 sequence (residues 1-136 of Rep, tag left off): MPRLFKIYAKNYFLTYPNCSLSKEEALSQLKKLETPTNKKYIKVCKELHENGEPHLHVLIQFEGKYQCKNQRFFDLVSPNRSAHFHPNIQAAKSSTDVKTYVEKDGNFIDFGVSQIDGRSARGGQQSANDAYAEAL
Protocol: as §1

[10] = system: T10, Rep nickase domain of wheat dwarf virus
T10 sequence (residues 1-137 of Rep, tag left off): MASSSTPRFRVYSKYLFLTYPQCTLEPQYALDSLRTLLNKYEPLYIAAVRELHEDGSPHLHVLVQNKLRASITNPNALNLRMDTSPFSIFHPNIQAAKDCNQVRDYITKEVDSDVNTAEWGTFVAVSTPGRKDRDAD
Protocol: as §1

Sequence | uncleaved DNA left (log2) [1] | uncleaved DNA left (log2) [2] | uncleaved DNA left (log2) [3] | uncleaved DNA left (log2) [4] | uncleaved DNA left (log2) [5] | uncleaved DNA left (log2) [6] | uncleaved DNA left (log2) [7] | uncleaved DNA left (log2) [8] | uncleaved DNA left (log2) [9] | uncleaved DNA left (log2) [10]
AAGTCAT | 0.0474 | -0.00244 | 0.19 | 0.516 | -0.118 | 1.26 | -3.75 | 0.0329 | 0.0173 | 0.149
AAATGTA | -1.43 | 0.0133 | -1.86 | -2.49 | 0.0719 | -1.04 | -2.69 | -0.161 | -0.0472 | -0.543
TGCAATC | -0.124 | 0.0515 | 0.0839 | 0.534 | -0.072 | 0.201 | 0.0334 | 1.46e-05 | 0.0663 | -0.0493
GCGATAC | 0.0234 | 0.0422 | 0.0296 | 0.189 | -0.0385 | 0.179 | 0.101 | 0.0128 | -0.0953 | 0.0135
GAGATGT | 0.0349 | 0.0491 | 0.595 | 1.28 | 0.0551 | 1.67 | -1.7 | 0.0171 | 0.101 | 0.111
ATTCAAC | -0.185 | -0.0463 | -0.227 | -1.82 | 0.000192 | -0.842 | -0.0619 | -0.0614 | -0.18 | -0.114
TTGGAGT | -0.0704 | -0.174 | -0.44 | -0.401 | -0.142 | -0.585 | -0.04 | -0.146 | -0.265 | -0.183
CGCGTAT | 0.0229 | -0.115 | -0.114 | -0.432 | -0.0446 | -0.409 | -0.243 | -0.114 | -0.0264 | -0.0198
GTCCGTG | -0.0562 | 0.0894 | 0.196 | 0.643 | -0.0395 | 1.21 | -0.00693 | 0.0456 | 0.0199 | -0.031
GCGAAGT | 0.0115 | -0.0081 | 0.147 | 0.39 | -0.022 | 0.189 | -0.0621 | -0.0923 | -0.0568 | -0.0634
GCGACCT | 0.0637 | -0.0544 | 0.0185 | 0.413 | -0.0557 | 0.914 | -0.0443 | -0.0474 | -0.0563 | -0.0507
TCCTCCT | -0.236 | -0.094 | 0.0777 | -1.66 | 0.152 | 0.191 | -1.38 | -0.128 | -0.0866 | -0.0751
AAAGATA | 0.2 | 0.113 | 0.132 | -0.794 | 0.218 | 0.946 | 0.13 | 0.194 | -0.094 | 0.132
TCACGGT | 0.07 | -0.123 | 0.236 | 0.38 | -0.109 | 1.23 | -0.00286 | 0.0495 | -0.0784 | -0.1
TTTGTGG | -0.0616 | -0.146 | -0.0225 | 0.113 | -0.102 | -0.238 | 0.0078 | -0.138 | -0.206 | -0.0801
CTGCAGC | -0.0505 | -0.117 | -0.407 | -0.532 | 0.104 | -1.24 | 0.072 | -0.017 | 0.00377 | -0.136
CAGAGCC | -0.0897 | 0.00266 | -0.158 | -0.0916 | -0.146 | -0.723 | -0.0886 | -0.0963 | -0.00512 | -0.0527
TAGGACT | 0.0197 | 0.0553 | 0.39 | 0.6 | -0.00701 | 1.2 | -0.203 | 0.0591 | 0.063 | 0.133
TCCTGTG | 0.0872 | 0.00522 | -0.619 | -0.552 | 0.0433 | -0.916 | 0.149 | -0.166 | -0.1 | 0.0181
GTCAGCC | -0.0575 | -0.11 | 0.157 | 0.551 | -0.0495 | 0.693 | -0.0419 | -0.025 | -0.0975 | -0.135
CCGAGTT | 0.0523 | -0.104 | 0.0615 | -1.01 | 0.05 | 0.229 | -0.308 | 0.0589 | -0.054 | -0.164
GTCGGAT | 0.0213 | 0.014 | 0.206 | 1.41 | 0.044 | 1.83 | 0.215 | 0.069 | -0.108 | -0.0831
ATTAGCA | 0.0519 | 0.0409 | -0.433 | -0.981 | -0.0273 | -1.19 | -0.104 | 0.0235 | 0.0664 | -0.0377
AGGTGTT | -1.39 | -0.197 | -0.702 | -0.65 | -0.541 | 1.3 | -3.18 | -0.118 | -0.129 | -0.414
AAAATTC | 0.187 | 0.149 | -0.0983 | -0.635 | 0.129 | -0.876 | 0.144 | 0.106 | 0.134 | -0.0171
TTGTGTC | 0.155 | -0.0263 | -0.0957 | -0.334 | 0.177 | -0.901 | 0.0501 | 0.0354 | 0.168 | 0.029
AGCGGTT | -0.0996 | -0.117 | 0.0545 | 0.284 | -0.0446 | 1.24 | -0.346 | -0.0625 | -0.0099 | -0.0527
CTGCTAC | -0.69 | -0.206 | -0.345 | -1.88 | 0.0056 | -0.923 | -1.13 | -0.147 | 0.0138 | -0.108
GTTAATA | -0.00353 | 0.0462 | 0.293 | 0.905 | 0.0714 | 1.74 | -0.017 | 0.125 | 0.117 | 0.0777
